Measurements as given in PubChem BioAssay AID588855 (National Center for Advancing Translational Sciences (NCATS), 2011).
Several values for one entry are separate records, joined by “and”; a condition that tells them apart may be missing. Identical values can stand only once. Screen size: about 410,000 compounds; about 5,000 (1.2%) were called active. The inconclusive results got no clear call from the source; some entries with a clear call stand among them for comparison. Calls come from the whole dose curve; as a rule, active = well fitted inhibition curve with a large enough effect; inconclusive = small, poorly fitted or top-dose-only effect; inactive = no such curve, though single readings can be large or run the other way. A potency beside an inconclusive call is a rough fit, not a confirmed value.

test: qHTS for Inhibitors of TGF-b; conditions: HepG2 CAGA-GFP TGF-b/SMAD3 reporter, GFP fluorescence, 18 h, TGF-beta stimulated, 500 pg/mL final; series mostly up to 46.1 µM; activity, negative = inhibition: at the top concentration; note: nearly all actives have a fitted effect of over 65% in size
Procedure, shortened: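 GFP signal (ex488/em500-530) from TGF-beta-stimulated HEPG2 CAGA-GFP cells, 500 pg/mL final, 18 h at 37 degrees C in DMEM plus 1% FBS, normalized to unstimulated and DMSO-stimulated controls.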
% is set by controls: 0 for no effect and ±100 for the full control effect; potency is the fitted concentration of half-maximal effect; tags give direction and shape of the fitted curve.

Row | SMILES | Potency | activity, negative = inhibition
1 | CCc1ccc(-c2cc(C(=O)N/N=C/c3c[nH]c4ccccc34)[nH]n2)cc1 | inconclusive: 22.4 µM [inhibitor, single point] | 
2 | Cc1oc2cc3oc(=O)c(CCC(=O)NCCc4ccccc4F)c(C)c3cc2c1C | inconclusive: 35.5 µM [inhibitor, single point] | 
3 | COc1cc2c(C#N)c(N3CCCC3)nc(N)c2c(N)n1 | inconclusive: 22.4 µM [inhibitor, single point] and inconclusive: 6.31 µM [inhibitor, full curve] | 
4 | CC(C)=NNc1nc(-c2ccc([N+](=O)[O-])cc2)cs1 | inconclusive: 12.6 µM [inhibitor, partial curve, poor fit] | 
5 | Cc1nn(CCc2nn[nH]n2)c2nc(-c3ccccc3)cc(C(F)(F)F)c12 | inconclusive: 5.01 µM [inhibitor, partial curve, poor fit] | 
6 | Cc1cccc(N2CCN(C(=O)c3ccccn3)CC2C)c1 (centres undefined) |  | inactive: -5.45%
7 | C(=N\n1cnnc1)/c1ccc2c(c1)OCO2 | inconclusive: 1.12 µM [inhibitor, partial curve, poor fit] | 
8 | Cc1ccc(C(=O)OC(C(=O)O)C(OC(=O)c2ccc(C)cc2)C(=O)O)cc1 (centres undefined) |  | inactive: 0.114%
9 | COc1cc(C(=O)NCCCNc2nc3cc(C)c(C)cc3cc2C#N)cc(OC)c1OC |  | inactive: -9.12%
10 | FC(F)(F)c1ccc(Cl)c(N/N=C/c2ccc(N3CCOCC3)s2)c1 | inconclusive: 35.5 µM [inhibitor, single point] | 
11 | CCSc1nc(N2CCCCC2)c2c(c1C#N)CCCC2 |  | inactive: 2.05%
12 | CN(C)CCCN(C(=O)c1ccc2c(c1)CCCC2)c1nc2ccc(Cl)cc2s1 | inconclusive: 35.5 µM [inhibitor, single point] | 
13 | CC(=O)Nc1ccc(NS(=O)(=O)c2c(C(=O)N3CCCCCC3)c(C)n(C)c2C)cc1 |  | inactive: 1.34%
14 | COc1ccc(Nc2nc(-c3ccc(OC)cc3)cs2)cc1 |  | inactive: 18.7%
15 | CCc1cc2ccccc2nc1SCC(=O)Nc1cc(C)on1 | inconclusive: 35.5 µM [inhibitor, single point] | 
16 | COc1cc(C(=O)N/N=C/c2sccc2C)cc(OC)c1OC | inconclusive: 3.98 µM [inhibitor, single point] | 
17 | CC(=O)c1cccc(OCC(=O)N(CCC2=CCCCC2)c2c(N)n(Cc3ccccc3)c(=O)[nH]c2=O)c1 | inconclusive: 14.1 µM [inhibitor, partial curve, poor fit] | 
18 | Cc1ccc(-n2ncc(C(=O)NCc3ccc4c(c3)OCO4)c2C2CCN(C(=O)OC(C)(C)C)CC2)c(C)c1 | inconclusive: 35.5 µM [inhibitor, single point] | 
19 | O=C(CN(C(=O)c1ccccc1Cl)N1C(=O)CCCC1=O)c1ccc(Cl)cc1 |  | inactive: 12%
20 | O=C(COc1c(Br)cc(Br)c2cccnc12)N1CCCCC1 |  | inactive: -18.9%
21 | COc1cc(NC(=O)c2ccc(C)cc2C)ccc1NC(=O)c1cc2ccccc2o1 |  | inactive: -7.29%
22 | CCc1nnc(NC(=O)CSc2nnc(-c3ccccc3O)n2-c2ccc(C)cc2C)s1 | inconclusive: 12.6 µM [inhibitor, partial curve] | 

Row | SMILES | Potency | activity, negative = inhibition
23 | Cc1nc2cc(C(=O)OCC(=O)Nc3cccc(Cl)c3)ccc2n1-c1ccccc1 | inconclusive: 1.26 µM [inhibitor, full curve, poor fit] | 
24 | CCOc1ccc(C(=O)NC(=S)NC2CCCC2)cc1[N+](=O)[O-] | inconclusive: 35.5 µM [inhibitor, partial curve, poor fit] | 
25 | COc1cc(CNC(=O)c2cc3n(n2)CCCN(Cc2cccc(F)c2)C3=O)cc(OC)c1OC | inconclusive: 28.2 µM [inhibitor, single point] | 
26 | CCOC(=O)[C@H]1[C@H]2COc3ccc(Cl)cc3[C@@H]2N2C(=O)CN(Cc3ccc(Cl)cc3)C(=O)[C@@]12C | inconclusive: 35.5 µM [inhibitor, single point] | 
27 | O=C(CC(c1cccs1)N1Cc2ccccc2C1=O)Nc1ccc(F)cc1 (centres undefined) |  | inactive: -4.61%
28 | CN1CCN(C(=O)c2ccc3c(c2)N(Cc2ccc(C(F)(F)F)cc2)C(=O)c2ccccc2S3)CC1 | inconclusive: 1 µM [inhibitor, partial curve] | 
29 | Cc1ccc(NC(=O)c2ccc(CN3CC(=O)N4CCCCC4C3=O)cc2)c(Cl)c1 (centres undefined) | inconclusive: 28.2 µM [inhibitor, single point] | 
30 | COc1ccc(CCNC(=O)/C(C#N)=C/c2cccc(OCc3ccccc3)c2)cc1OC | inconclusive: 35.5 µM [inhibitor, single point] | 
31 | COc1ccc(OC)c(NC(=O)CCN2CCN(Cc3ccccc3)CC2)c1 |  | inactive: 0.826%
32 | Cc1ccc(-c2nnc(SCC(=O)NC3CCCc4ccccc43)n2N)cc1 (centres undefined) |  | inactive: 0.254%
33 | COc1cccc(NC(=S)Nc2ccc(O)cc2)c1 |  | inactive: -0.255%
34 | COc1ccc(Br)cc1Cn1nnc(C(=O)Nc2cccc(SC)c2)c1N |  | inactive: -2.87%
35 | Cc1cc(Nc2cccc(Cl)n2)n(-c2ccccc2)n1 | inconclusive: 10 µM [inhibitor, partial curve] | 
36 | [O-]/C(=C(\C(=S)Nc1ccc(Cl)cc1)[n+]1ccccc1)c1ccc(OC(F)F)cc1 | inconclusive: 35.5 µM [inhibitor, single point] | 
37 | O=C1N[C@@H](Cc2cn(S(=O)(=O)c3ccc([N+](=O)[O-])cc3)c3ccccc23)C(=O)N[C@H]1Cc1ccccc1 | inconclusive: 31.6 µM [inhibitor, single point] | 
38 | CCCCCCNc1ccc(/C=C/c2ccnc3ccccc23)cc1 | inconclusive: 7.94 µM [inhibitor, single point] | 
39 | O=C(CSc1nc2ccccc2n1Cc1cccc(F)c1)NCc1ccccc1 | inconclusive: 8.91 µM [inhibitor, partial curve, poor fit] | 
40 | Cc1ccc([C@H]2C(C(=O)O)=CC[C@@H](c3ccc(Cl)c(Cl)c3)N2S(=O)(=O)c2ccc(C)cc2)cc1 | inconclusive: 35.5 µM [inhibitor, single point] | 
41 | O=S(=O)(NCCc1csc(-c2ccc(C(F)(F)F)cc2)n1)c1ccc2c(c1)OCCO2 | inconclusive: 35.5 µM [inhibitor, single point] | 
42 | CCOC(=O)CSc1nnc(CSc2nc3sc4c(c3c(=O)[nH]2)CCCC4)n1-c1ccccc1 | inconclusive: 7.94 µM [inhibitor, partial curve, poor fit] | 
43 | Cc1cc(/C=C2\SC(=Nc3ccc(F)cc3)NC2=O)c(C)n1-c1ccc(S(N)(=O)=O)cc1 | inconclusive: 22.4 µM [inhibitor, single point] | 
44 | COCCNC(=S)N(CCc1c(C)[nH]c2ccc(Cl)cc12)Cc1cccnc1 | inconclusive: 7.94 µM [inhibitor, partial curve, poor fit] | 

Row | SMILES | Potency | activity, negative = inhibition
45 | N#C/C(=C\c1c(N2CCCCC2)nc2ccccn2c1=O)C(=O)NC1CCS(=O)(=O)C1 (centres undefined) |  | inactive: 12.3%
46 | OC[C@@H]1[C@@H](c2ccc(F)cc2)C(c2cccc(Cl)c2)=NN1c1ccccc1 | inconclusive: 14.1 µM [inhibitor, partial curve, poor fit] | 
47 | Cc1cc(C)c2nc3sc(C(=O)N4CCOCC4)c(N)c3cc2c1 | inconclusive: 5.62 µM [inhibitor, full curve] | 
48 | O=C(Nc1cccc([N+](=O)[O-])c1)c1[nH]ncc1Cl | inconclusive: 1.78 µM [inhibitor, partial curve, poor fit] | 
49 | O=C(COC(=O)[C@@H]1CC(O)CN1S(=O)(=O)c1ccc2c(c1)OCCO2)Nc1cc(F)ccc1F (some centres undefined) |  | inactive: -5.94%
50 | C=CCn1c(SCc2cccc(C#N)c2)nnc1-c1ccccc1O | inconclusive: 0.355 µM [inhibitor, partial curve, poor fit] | 
51 | COc1ccc(CNC(=O)CSc2nnc(C)c3c(C)n(-c4ccccc4)nc23)c(OC)c1 |  | inactive: -14%
52 | CC(=O)c1ccc2c(c1)CC1(C2)Cc2cc3c(cc2C1)C(=O)CC3 (centres undefined) | inconclusive: 12.6 µM [inhibitor, partial curve, poor fit] | 
53 | O=C(NCc1cccnc1)c1cc(C2CCCN(S(=O)(=O)c3cccc4cccnc34)C2)on1 (centres undefined) |  | inactive: 5.78%
54 | CC(C)CNS(=O)(=O)c1ccc(CCC(=O)NCc2ccc(Cl)cc2)cc1 | inconclusive: 35.5 µM [inhibitor, single point] | 
55 | O=[N+]([O-])c1cccc2nc(-c3ccccc3)c(-c3ccccc3)nc12 |  | inactive: -9.55%
56 | Cc1cccc(N=N/C(=C\O)C(=O)c2ccc(Br)cc2)c1 | active: 10 µM | 
57 | Cc1ccc(CNS(=O)(=O)c2cnc(N)nc2)cc1 |  | inactive: -2.02%
58 | O=C(CN(C(=O)C1COc2ccccc2O1)c1ccccc1)NCC1CCCO1 (centres undefined) | inconclusive: 35.5 µM [inhibitor, single point] | 
59 | O=C(c1cc2c(Cl)nc3ccccc3c2s1)N1CCCCC1 | inconclusive: 3.16 µM [inhibitor, partial curve, poor fit] | 
60 | COc1ccc2nc(C)cc(NCc3cccc(C(F)(F)F)c3)c2c1 | inconclusive: 35.5 µM [inhibitor, single point] | 
61 | O=C(CN(C(=O)CSc1nnc(COc2ccccc2)o1)c1ccc(F)cc1)NC1CCCC1 |  | inactive: -7.79%
62 | O=C(CCN1C(=O)/C(=C/c2ccccc2F)SC1=S)N[C@@H](CO)Cc1ccccc1 | inconclusive: 15.8 µM [inhibitor, single point] | 
63 | COc1cc(C(=O)NNC(=S)NC(=O)c2ccc(Cl)cc2)cc(OC)c1OC | inconclusive: 11.2 µM [inhibitor, single point] | 
64 | Oc1ccc(-c2nc3ccc(Cl)cn3c2Nc2ccc(Cl)cc2)cc1 | inconclusive: 12.6 µM [inhibitor, partial curve, poor fit] | 
